PubChem BioAssay AID504466 (National Center for Advancing Translational Sciences (NCATS), 2011)
The campaign covered roughly 330,000 compounds. About 4,200 (1.3%) were called active. The shares of active, inactive and inconclusive entries below differ from those in the screen. The call rests on the fitted dose curve; in most records, active means well fitted activation curve with a large enough effect; inconclusive means small, poorly fitted or top-dose-only effect; inactive means no such curve, though single readings can be large or run the other way. Potencies beside an inconclusive call are fits to weak or partial responses and may not hold up.

Test: qHTS screen for small molecules that induce genotoxicity in human embryonic kidney (HEK293T) cells expressing luciferase-tagged ELG1; further: nearly all actives have a fitted effect of over 60% in size
Conditions: HEK293T ELG1-luciferase reporter, luminescence, 16 h; series mostly up to 46 µM
Procedure, shortened: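 Reporter readout depends on ELG1 protein level, which increases with genetic stress. After 16 hr compound exposure at 37 °C, luciferase activity was quantified using ONE-Glo.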
Potency means the concentration at half of the fitted maximal effect; tags describe the fitted curve by direction and shape.

| SMILES | Potency |
| --- | --- |
| COc1ccc(NC(=O)NC2CCCc3ccccc32)cc1OC (stereo not given) | active: 6.51 µM |
| O=C(COC(=O)c1ccccc1-n1cnnn1)c1ccc(F)c(F)c1 | inconclusive: 10.3 µM [activator, single point] |
| CCC(=O)Nc1cccc(NC(=O)c2cc3ccccc3o2)c1 | inconclusive: 4.11 µM [activator, partial curve] |
| COc1cc(OC)c(/C=N/NC(N)=S)cc1Br | inactive |
| CC(C)c1ccc(NC(=O)Cn2ncc3ccccc32)cc1 | inconclusive: 9.2 µM [activator, partial curve] |
| COc1ccc(C(=O)Cc2ccc(F)cc2)c(OC)c1 | inconclusive: 20.6 µM [activator, single point] |
| c1cncc(C2Nc3ccccc3-c3nc4ccccc4n32)c1 (stereo not given) | inconclusive: 16.4 µM [activator, single point] |
| COc1ccc(-c2cc(-c3cc(OC)ccc3O)[nH]n2)cc1 | active: 9.2 µM |
| O=C(NCCC1=CCCCC1)NC12CC3CC(CC(C3)C1)C2 | inconclusive: 2.59 µM [activator, single point] |
| COc1cccc(C(=O)O/N=C(\N)CS(=O)(=O)c2ccccc2)c1 | inconclusive: 18.3 µM [activator, partial curve, poor fit] |
| C=CCOc1ccc(/C=C/C(=O)OCC(=O)N(C)C2CCS(=O)(=O)C2)cc1 (stereo not given) | inactive |
| O=c1oc2c(CN3CCCCCC3)c(O)ccc2cc1-c1nc2ccccc2[nH]1 | inactive |
| O=S(=O)(c1ccc(SCCOc2ccc(Cl)cc2)nc1)N1CCCC1 | inactive |
| COc1cc2c(cc1OC)C(C)N(C(=O)c1cc(C)on1)CC2 (stereo not given) | inconclusive: 7.3 µM [activator, partial curve, poor fit] |
| NS(=O)(=O)c1ccc(N/C=C\C(=O)c2ccc3ccccc3c2)cc1 | inactive |
| COc1ccc(Cn2c(-c3ccc(OC)c(O)c3)nc3ccccc32)cc1O | inconclusive: 16.4 µM [activator, partial curve, poor fit] |
| COc1ccc(S(=O)(=O)c2nnn(-c3cccc(Cl)c3)c2N)cc1 | inactive |
| Cc1ccc(-c2cc(N)n(-c3ccccc3)n2)cc1 | inconclusive: 3.66 µM [activator, full curve] |
| COC(=O)c1ccc(NC(=O)c2ccc3nc(C)sc3c2)cc1 | inconclusive: 14.6 µM [activator, partial curve] |
| Cn1cccc1C(=O)OCC(=O)Nc1ccc2c(c1)CCC2 | active: 20.6 µM |
| O=C(NCC(O)c1ccccc1)c1cccs1 (stereo not given) | inconclusive: 16.4 µM [activator, partial curve] |
| Cc1ccccc1-c1nc(-c2ccccn2)no1 | inconclusive: 0.184 µM [activator, full curve, poor fit] |
| Cc1ccc(-c2nc(S(=O)(=O)c3ccc(C)cc3)c(N(C)C)o2)cc1 | inactive |
| O=C(Nc1nc2ccccc2[nH]1)c1ccc(F)cc1 | inconclusive: 0.731 µM [activator, full curve, poor fit] |
| Cn1sc(NC(=O)c2ccccc2Cl)nc1=O | inactive |

| SMILES | Potency |
| --- | --- |
| Cc1c(/C=N/Nc2nc3ccccc3[nH]2)c2ccccc2n1C | inconclusive: 23.1 µM [activator, single point] |
| COc1ccc(C(=O)CCc2ccccc2)cc1 | inconclusive: 20.6 µM [activator, partial curve, poor fit] |
| CC(C)C(NC(=O)OCc1ccccc1)C(=O)OCC(=O)N1CCCCC1 (stereo not given) | active: 20.6 µM |
| O=C(c1noc2c1CCCC2)N1CCc2ccccc2C1 | active: 20.6 µM |
| CC(C)c1ccc(N(CC(=O)NCc2ccco2)C(=O)CCC(=O)Nc2nccs2)cc1 | inactive |
| COc1ccc2[nH]c(-c3cccc(F)c3)cc(=O)c2c1 | active: 13 µM |
| COc1ccc(NC(=O)c2ccccc2OCc2c(C)noc2C)cc1OC | inactive |
| COc1ccc(C2CC(c3ccc(C)cc3)=NN2C(=O)CCC(=O)O)cc1OC (stereo not given) | inactive |
| COc1ccc(-c2nnc(SCC(C)C)o2)cc1 | inconclusive: 1.3 µM [activator, full curve] |
| COc1ccc(Cc2nc(-c3ccc(-n4cccc4)cc3)no2)cc1OC | active: 13 µM |
| CCn1c(=NC(=O)c2ccco2)sc2cccc(F)c21 | active: 14.6 µM |
| COC(=O)c1c(-c2ccc(C)cc2)csc1NC(=S)NC(=O)c1ccc(F)cc1 | inconclusive: 32.6 µM [activator, partial curve, poor fit] |
| CCn1ccnc1CN(C)C(=O)c1cc(COc2ccccc2SC)on1 | inconclusive: 5.17 µM [activator, full curve] |
| COc1cc(NC(C)CCCN)c2ncccc2c1Oc1ccccc1 (stereo not given) | inactive |
| Cc1ccc(Cn2nc(C)c(C(=O)NCC(c3ccc(F)cc3)N3CCOCC3)c2Cl)cc1 (stereo not given) | inactive |
| CCCn1nnc(NC(=O)c2ccc(F)cc2)n1 | inactive |
| O=C(NCCCc1ccccc1)c1ccc(F)cc1 | inconclusive: 20.6 µM [activator, single point] |
| N#C/C(=C/c1ccc(N2CCCCCC2)o1)c1ccc(Cl)cc1 | inconclusive: 29.1 µM [activator, single point] |
| N#C/C(=C\c1ccc(F)cc1)c1nc(-c2ccco2)cs1 | inconclusive: 14.6 µM [activator, partial curve, poor fit] |
| O=[N+]([O-])c1ccc(N=Nc2ncc[nH]2)cc1 | inconclusive: 2.59 µM [activator, partial curve, poor fit] |
| CC(c1ccccn1)N(C)C(=O)c1ccc2nc(Cc3cccc(Cl)c3)oc2c1 (stereo not given) | inconclusive: 3.66 µM [activator, partial curve, poor fit] |
| Nc1c(Cl)ncnc1N/N=C/c1ccccn1 | active: 4.11 µM |
| O=C(NN=C1CCC(=NNC(=O)c2ccccn2)CC1)c1ccccn1 | inconclusive: 18.3 µM [activator, single point] |
| CCS(=O)(=O)N1CCC(NC(=O)C(Cc2cc(OC)ccc2OC)NC(C)=O)CC1 (stereo not given) | inactive |
| COc1cccc(/C=N/NC(=O)CNC(=O)COc2ccccc2)c1O | inconclusive: 20.6 µM [activator, single point] |
